Experimental data published in PubChem BioAssay AID493208 (National Center for Advancing Translational Sciences (NCATS), 2011).
About 340 (0.77%) of roughly 44,000 compounds were called active. Roughly 5% stayed inconclusive and do not appear here. Calls come from the whole dose curve; as a rule, active = well fitted inhibition curve with a large enough effect; inconclusive = small, poorly fitted or top-dose-only effect; inactive = flat fitted curve, though single readings scatter. Some of the results follow.

assay: Acumen qHTS Assay for Inhibitors of the mTORC1 Signaling Pathway in MEF (Tsc2-/-, p53-/-) Cells: Sytravon; settings: phospho-rpS6 immunofluorescence/PI, 24 h; series mostly up to 38.3 µM; activity change, negative = inhibition: at the top concentration;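 note: plate controls were DMSO for no effect and rapamycin for full effect; nearly all actives have a fitted effect of over 50% in size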
Summary of the method: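 Tsc2-/-, p53-/- mouse embryonic fibroblasts (empty-vector line) exposed to compound 24 hrs at 37 C, fixed, immunostained for phospho-rpS6 and counterstained with propidium iodide. Acumen laser scanning gives % positive cells from Alexa 488/PI ratio, thresholded using 7.5 nM rapamycin; PI count gives viability.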

Activity change, negative = inhibition, inactive:
Cc1ccc(CNC(=O)C2CCN(S(=O)(=O)Cc3ccccc3)CC2)cc1 0.477%
CN(C)c1ccc(CNC(=O)C2CCCN(S(=O)(=O)c3ccc4c(ccn4C)c3)C2)cc1 (centres undefined) -22.6%
COC(=O)C1=C(C)NC(=O)C1(NC(=O)c1ccc(Cl)cc1)C(F)(F)F (centres undefined) -0.0392%
CCN1CCC(N(Cc2cccc(OC)c2)C(=O)Nc2cccc(C)c2C)CC1 -3.17%
CC1=Nc2cc(C(=O)NCc3ccc(C)cc3)ccc2Sc2ccc(Cl)cc21 -3.67%
COc1ccc(C2N=C(N)Nc3nc4ccccc4n32)c(OC)c1OC (centres undefined) -7.09%
O=C(CSc1nc2c([nH]c3ccccc32)c(=O)n1-c1ccc(Cl)cc1)NC1CCCCC1 -0.523%
CCCCNC(=O)Nc1ccc2c(c1)N(C)C(=O)c1ccccc1S2 -0.0839%
CCN(CC)C(=O)CN1C(=O)COc2ccc(S(=O)(=O)N3CCOCC3)cc21 -17.4%
CCc1ccc(NC(=O)N2CCN(Cc3nc4ccc(C)cc4o3)CC2)cc1 2.11%
COc1ccc(NC(=O)Cn2nnc(C(=O)NCc3ccco3)c2N)c(OC)c1 1.82%
COc1ccccc1NC(=O)c1c(C)cc(C)nc1SCC(=O)Nc1ccc(C)cc1 -1.28%
Cc1cc(Nc2cccc(Br)c2)n2c(nc3ccccc32)c1C#N -4.78%
Cc1ccc(N2CCN(C(=O)c3cn(C)c4ccc(S(=O)(=O)N5CCCC5)cc4c3=O)CC2C)cc1 (centres undefined) -6.05%
CC(=O)Nc1ccc(S(=O)(=O)NCC2CCC(C(=O)NCc3ccccc3)CC2)cc1 (centres undefined) -2.77%
CCOc1ccc(NC(=O)CN2C(=O)c3ccccc3Sc3ccc(C(=O)OC)cc32)cc1 1.41%
COc1cc(NC(=O)CSc2nc(-c3ccccc3)no2)cc(OC)c1 3.36%
Cc1cc(C)cc(-n2c(SCC(=O)NCc3ccc(F)cc3)nc3c([nH]c4ccccc43)c2=O)c1 -6.37%
Cc1ccc2c(c1)c(=O)c1ccccc1n2CCCC(=O)Nc1ccc(Cl)c(Cl)c1 18.7%
COc1cccc(NC(=O)CN2C(=O)CC(c3ccco3)Sc3ccccc32)c1 (centres undefined) -0.0092%
Cc1cccc(C)c1NC(=O)C(=O)NCC(c1cccnc1)N1CCc2ccccc21 (centres undefined) 3.09%
COC(=O)c1sc(-c2ccccc2)cc1NC(=O)c1cccc(Cl)c1 -6.92%
COc1cc(NC(=O)c2cc3c(=O)n(Cc4ccco4)ccc3nc2C)cc(OC)c1OC -19.2%
O=C(C1CCC(Cn2c(=O)c3sccc3n(Cc3ccccc3F)c2=O)CC1)N1CCOCC1 (centres undefined) -2.19%
CCOC(=O)c1c(NC(=O)c2ccc(S(=O)(=O)N(CC(C)C)CC(C)C)cc2)sc2c1CCN(CC)C2 8.06%
O=C(Nc1nc(-c2ccccc2)ns1)c1ccc(Cl)cc1 -9.53%
CCOC(=O)N1CCc2c(sc(NCc3cccs3)c2C(=O)Nc2cc(Cl)ccc2OC)C1 0.726%
CCN(CC)c1ccc(NC(=O)C2CCN(S(=O)(=O)c3ccc4c(c3)oc(=O)n4C)CC2)c(C)c1 -1.99%
Cc1cccc(NC(=O)C(NS(=O)(=O)c2cccc3nsnc23)c2ccccc2)c1C (centres undefined) -3.81%
COc1ccc(CN(C(=O)c2cc(=O)c3ccccc3o2)C2CCS(=O)(=O)C2)cc1OC (centres undefined) -9.96%
COc1ccccc1N1CCN(C(=O)c2ccc3c(c2)N(Cc2cc(C)ccc2C)C(=O)c2ccccc2S3(=O)=O)CC1 -8.58%
COc1ccc(N2CCN(S(=O)(=O)c3cc(Br)cc4c3N(C(=O)C3CC3)CC4)CC2)cc1 3.88%
Cc1ccc(NC(=O)Cn2c(=O)n(Cc3ccco3)c(=O)c3sc4ccccc4c32)c(C)c1 -5.15%
CC(C)(C)OC(=O)N1CCC(c2c(C(=O)N3CCN(c4ccccn4)CC3)cnn2-c2cccc(F)c2)CC1 2.12%
CCOC(=O)c1c(C)c(-c2ccccc2)n(CC(=O)NCc2ccccc2)c1C 2.84%
COc1cc2c(=O)c(S(=O)(=O)c3ccc(C(C)C)cc3)cn(Cc3ccccc3C)c2cc1OC -5.82%
Cc1ccc(C(=O)NCC(c2ccco2)S(=O)(=O)c2ccccc2)cc1C (centres undefined) 8.93%
CCOC(=O)c1ccc(NS(=O)(=O)c2ccc3c(c2)CCN3C(=O)CC)cc1 -1.66%
O=C(CSc1nccn1Cc1ccccc1)Nc1nc2ccccc2s1 0%
COc1ccc(OC)c(NC(=O)COCc2cc(-c3ccco3)on2)c1 -0.311%
O=C(Nc1cccc(C(F)(F)F)c1)c1cc2nc(-c3ccco3)cc(C(F)(F)Cl)n2n1 -1.84%
Cc1cc(C)c(Cn2c(=O)n(Cc3ccccc3)c(=O)c3c(C)c(C)sc32)c(C)c1 1.57%
COc1ccc(-n2nc(C(=O)N3CCCCC3)c3c4ccccc4n(C)c3c2=O)cc1Cl -3.45%
Cc1ccc(S(=O)(=O)c2nnn(CC(=O)Nc3ccccc3C)c2N)cc1 2.06%
CCOC(=O)c1cc(-c2ccccc2)n(CCC(=O)NCCc2ccc(C)cc2)c1C -12.9%
COc1ccc(OC)c(CNC(=O)c2cc3ccc4cccnc4c3[nH]2)c1 -0.814%
Cc1nn2c(=O)cc(COC(=O)c3ccc(NC(=O)COc4ccc(Cl)cc4)cc3)nc2s1 0%
CC1CCN(S(=O)(=O)c2ccc3nc(NCc4ccc(F)cc4)ccc3c2)CC1 -18.2%
CCn1nnc2cc(C(=O)Nc3ccc(C)cc3Br)ccc21 0%
O=C(Cn1nnc2sc(-c3ccccc3)cc2c1=O)Nc1cccc(C(F)(F)F)c1 4.76%
CC(C)(C)OC(=O)N1CCC(c2nnc(SCc3ccccc3F)o2)CC1 -15.7%
CCOc1ccc(CCNc2ncnc3onc(-c4ccc(Cl)cc4)c23)cc1 -8.42%
COc1ccc(C)cc1NC(=O)C(=O)NCCc1csc2nc(-c3ccccc3F)nn12 -14.7%
CCc1ccccc1NC(=O)CN(c1ccc(OC)cc1)S(=O)(=O)c1c(C)n[nH]c1C -18.5%
Cc1cccc(-c2nc3scc(CCNS(=O)(=O)c4ccc(F)cc4C)n3n2)c1 1.77%
Cc1oc(-c2ccccc2)nc1CNC(=O)NC1CCCCC1 13.9%
COc1ccc(Nc2sc(C(=O)c3ccccc3)c(N)c2C(=O)Nc2cc(C)ccc2C)c(OC)c1 -3.83%
Cc1ccn2c(c1)nc(=O)c1cc(S(=O)(=O)N3CCCCC3)c(Cl)cc12 0.144%
CCc1ccc(NC(=O)c2sc3nc(C)c(C(=O)Nc4ccc(C)cc4C)c(-c4ccco4)c3c2N)cc1 -1.95%
Cc1c(NC(=O)c2cc(-c3ccc(Br)cc3)on2)c(=O)n(-c2ccccc2)n1C -28.7%
Cc1ccc(S(=O)(=O)c2nnn3c2nc(N2CCC(C)CC2)c2cc(Cl)ccc23)cc1C 6.37%
CCOC(=O)c1c(NC(=O)/C=C/c2ccc(OCC)c(OC)c2)sc2c1CCC2 -1.7%
COc1cccc(CNC(=O)CCCN2C(=O)CSc3c2c(C)nn3-c2ccccc2)c1OC -10.6%
Cc1cccc(NC(=O)CN2C(=O)c3ccccc3Sc3ncccc32)c1C -1.81%
COc1ccccc1C(=O)OCc1cc(=O)n2nc(C3CCCCC3)sc2n1 -11.7%
CCn1c(NCc2ccc(OC)c(OC)c2)nc2ccccc21 -12.6%
CCOc1ccccc1CNC(=O)c1ccc2c(c1)sc1nc(-c3ccccc3)cn12 4.61%
Cc1noc2ncnc(N3CCCC(C(=O)NC(C)C)C3)c12 (centres undefined) 6.41%
Cc1ccc(Cl)cc1N1CCN(CCCNc2ncnc3onc(-c4ccc(Cl)cc4)c23)CC1 -2.36%
COc1ccc(CCNC(=O)CSC2=Nc3ccccc3C3=NC(CCC(=O)NCc4ccccc4)C(=O)N23)cc1OC (centres undefined) -0.799%
Cc1cccc(CCNC(=O)C2CCN(c3ncnc4c3nc3n4CCCCC3)CC2)c1 -9.97%
COc1ccc(NC(=O)c2ccc(NC(=O)CCS(=O)(=O)c3cccs3)cc2)cc1OC -7.55%
CCOC(=O)c1cc(-c2ccccc2)n(CCC(=O)Nc2cc(OCC)ccc2OCC)c1C -1.81%
CCCCCn1c(CCCNC(=O)c2cccc(C)c2)nc2ccccc21 5.48%
Cc1cccc(N2CCN(S(=O)(=O)c3ccc4oc(=O)c5ncn(C)c5c4c3)CC2)c1C -1.27%
O=C(CCCCn1c(=O)c2ccccc2n(CC(=O)Nc2ccccc2)c1=O)NCc1ccccc1Cl -4.67%
CCN(CC)CCCNC(=O)C1CCN(S(C)(=O)=O)CC1 4.24%
Cc1c(C)n(Cc2ccccc2)c2ccc(C(=O)NCc3ccc(OC(C)C)cc3)cc12 -22.1%
CCOC(=O)c1sc(NC(=O)C(C)Sc2nc(-c3ccccc3)cc(C(F)(F)F)n2)c(C(=O)OC)c1C (centres undefined) 1.89%
CCOc1ccc(C(=O)Nc2ccc(-c3nc4cc(C)ccc4o3)cc2)cc1 -2.42%
Cc1oc(-c2ccc(C(=O)Nc3cccc(C(F)(F)F)c3)cc2)nc1CSc1ccccc1 -8.55%
COc1ccc(Nc2nc3ccc(Cl)cc3n3nnnc23)cc1OC 10.7%
COc1ccc(-c2nc3scc(CCNS(=O)(=O)c4ccc(F)c(C(F)(F)F)c4)n3n2)cc1OC -0.602%
O=C(Oc1ccccc1Cl)c1cc(-c2ccc3c(c2)OCCO3)on1 -0.148%
Cc1ccc(NC(=O)c2cnc(N3CCCCC3)c3ccccc23)cc1Cl -1.24%
Cc1n[nH]c(C)c1CCc1nc2c3ccccc3nc(SCC(=O)Nc3ccc(F)cc3)n2n1 -14.2%
Cc1ccc(OCCn2cc(C(=O)c3ccco3)c3ccccc32)cc1C -14.7%
COc1ccc(-c2nc3nc(C)cc(Nc4cccc(C(F)(F)F)c4)n3n2)cc1 3.63%
Cc1ccc(CNC(=O)Cn2cc(S(=O)(=O)Cc3cccc(Cl)c3)c3ccccc32)cc1 -0.963%
COc1ccc(NC(=O)COc2ccc(S(=O)(=O)NC3CCCCC3)cc2)c(OC)c1 -29.1%
O=C(CCCc1nc(-c2ccccc2)no1)Nc1cc(C(F)(F)F)cc(C(F)(F)F)c1 -3.22%
Cc1cc(C)c(Cn2c3ccccc3c3cnn(CC(=O)NCc4ccc(Cl)cc4)c(=O)c32)c(C)c1 0.0526%
CCOc1ccc(NC(=O)c2cc(S(=O)(=O)N3CCCC3)c[nH]2)cc1 -5.88%
CC1=C(C(=O)Nc2ccccc2C)C(c2ccco2)n2ncnc2N1 (centres undefined) -0.475%
